Test results as given in PubChem BioAssay (Tox21).
Where “and” joins values, the source holds several entries; their conditions need not be identical. Equal values may be shown once. This list was built around the results that the source calls inconclusive (neither active nor inactive); the mix of calls is not that of the screen. Where the call is inconclusive, the potency comes from a doubtful curve fit. Calls of active or inactive are those of the source. Calls follow the shape of the dose curve; as a rule, active = well fitted activation curve with a large enough effect; inconclusive = small, poorly fitted or top-dose-only effect; inactive = flat fitted curve, though single readings scatter.

Experiment: qHTS assay to identify small molecule phospholipidosis (PLD) inducers (AID 1259344)
Conditions: HepG2 phospholipidosis, LipidTOX Red imaging, 24 h; series mostly up to 38.3 µM
Text: National Center for Advancing Translational Sciences [NCATS]
Drug-induced Phospholipidosis (PLD) caused by cationic amphiphilic drugs is characterized by the appearance of unicentric or multicentric-lamellar bodies when viewed under electron microscope. Electron microscopy is the gold standard method for PLD detection, however, this method is time-consuming and labor intensive, making it unsuitable for evaluating a large set of compounds. A cell-based phospholipidosis assay has been developed using the LipidTox reagent in HepG2 cells and miniaturized into a 1536-well plate format. Drug induced phospholipid accumulation is stained with the LipidTox dyes in red color which then is determined using an automated high content screening system.
HepG2 cells are dispensed at 900 cells/3 uL/well into Collagen I-coated 1536-well black-wall/clear-bottom assay plates (Greiner Bio-One, Monroe, NC) using the Multidrop Combi 8 channel dispenser (Thermo Fisher, Waltham, MA, USA). The assay plates are incubated at 37 C for 4 hours to allow the cell attachment. 3 uL of 1:500 LipidTOX Red dye is added using the dispenser, and then 23 nL compounds are added via a Wako Pintool station (Wako Automation, San Diego, CA). Amiodarone, a known PLD inducer, was used as a positive control and DMSO was used as a negative control. The assay plates were then incubated at 37 C for 24 hours.
For fixations, 4 uL of 8% paraformaldehyde fixative solution containing 10 ug/mL Hoechst 33342 in Dulbecco's phosphate-buffered saline (DPBS) is added using a Kalypsys washer/dispenser (Kalypsys, San Diego, CA, USA). After incubation at room temperature for 30 min, the assay plates are washed once with DPBS using a Kalypsys washer/dispenser. The assay plates are then sealed and stored at 4 C before imaging. The fluorescence intensities (595 nm excitation, 615 nm emission for LipidTOX; 352 nm excitation, 461 nm emission for Hoechst 33342) are measured using an ImageXpress Micro Widefield High Content Screening System (Molecular Devices, Sunnyvale, CA, USA) with a 20x Plan Fluor objective. Images are acquired for one site in each well and analyzed with the MetaXpress software (Molecular Devices) using the Transfluor module. Several algorithmic outputs, such as pit count per well, pit count per cell, pit integrated intensity per well, and pit integrated intensity per cell, are used for quantitative image analysis for PLD.
% is scaled to controls: 0 for no effect and ±100 for the full control effect; potency is read from the fitted curve at half-maximal effect; tags tell the direction and shape of the fitted curve.

SMILES | Potency | PLD induction
CN(C)CCC=C1c2ccccc2C=Cc2ccccc21 | inconclusive: 11.2 µM [activator, single point] | –
CCCCCCc1ccc(O)cc1O | inactive | –
Nc1c2c(nc3ccccc13)CCCC2 | inconclusive: 14.1 µM [activator, partial curve, poor fit] | –
CC1(CN2CCC(n3c(=O)[nH]c4ccccc43)CC2)OCc2ccccc2-n2cccc21 (stereo not given) | inconclusive: 10 µM [activator, single point] | –
CC(=O)[C@]1(O)Cc2c(O)c3c(c(O)c2[C@@H](O[C@H]2C[C@H](N)[C@H](O)[C@H](C)O2)C1)C(=O)c1ccccc1C3=O | inconclusive: 28.2 µM [activator, single point] | –
CN1CCCC(n2nc(Cc3ccc(Cl)cc3)c3ccccc3c2=O)CC1 (stereo not given) | inconclusive: 28.2 µM [activator, single point] | –
COC(=O)Nc1nc2ccc(C(=O)c3ccccc3)cc2[nH]1 | inconclusive: 2.51 µM [activator, full curve] | –
C[C@@H](O[C@H]1OCCN(Cc2n[nH]c(=O)[nH]2)[C@H]1c1ccc(F)cc1)c1cc(C(F)(F)F)cc(C(F)(F)F)c1 | inconclusive: 17.8 µM [activator, single point] | –
CN[C@H]1CC[C@@H](c2ccc(Cl)c(Cl)c2)c2ccccc21 | active: 2.82 µM | –
O=C1CC2(CCCC2)CC(=O)N1CCCCN1CCN(c2ncccn2)CC1 | inconclusive: 3.98 µM [activator, full curve] | –
NC(=O)CC[C@@H]1NC(=O)[C@H](Cc2ccccc2)NC(=O)[C@H](Cc2ccc(O)cc2)NC(=O)CCSSC[C@@H](C(=O)N2CCC[C@H]2C(=O)N[C@@H](CCCN=C(N)N)C(=O)NCC(N)=O)NC(=O)[C@H](CC(N)=O)NC1=O | inconclusive: 15.8 µM [activator, partial curve, poor fit] | –
O=C(Oc1ccccc1)c1cccc(C(=O)Oc2ccccc2)c1 | inconclusive: 39.8 µM [activator, single point] | –
OCCN1CCN(CCCN2c3ccccc3Sc3ccc(Cl)cc32)CC1 | inconclusive: 7.94 µM [activator, single point] | –
Cc1c(F)c(N2CCNC(C)C2)cc2c1c(=O)c(C(=O)O)cn2C1CC1 (stereo not given) | inactive | –
CCc1cc(Cl)c(OC)c(C(=O)NC[C@@H]2CCCN2CC)c1O | inconclusive: 28.2 µM [activator, single point] and inconclusive: 11.2 µM [activator, single point] | –
NC1[C@H]2CN(c3nc4c(cc3F)c(=O)c(C(=O)O)cn4-c3ccc(F)cc3F)C[C@@H]12 (stereo not given in full) | inactive | –
C=CCN1C[C@H](C(=O)N(CCCN(C)C)C(=O)NCC)C[C@@H]2c3cccc4[nH]cc(c34)C[C@H]21 | inconclusive: 12.6 µM [activator, single point] | –
NC(=Nc1ccccc1)Nc1ccccc1 | inactive | –
CCOC(=O)[C@H](CCc1ccccc1)N[C@H]1CCc2ccccc2N(CC(=O)O)C1=O | inconclusive: 20 µM [activator, single point] | –
CCN(CC)CCOc1ccccc1C(=O)CCc1ccccc1 | inactive | –

SMILES | Potency | PLD induction
CC(CN(C)C)CN1c2ccccc2CCc2ccccc21 (stereo not given) | inconclusive: 11.2 µM [activator, single point] | –
C=CCc1ccccc1OCC(O)CNC(C)C (stereo not given) | inactive | –
NCc1ccc(S(N)(=O)=O)cc1 | inactive | –
CN1CCCN(C(c2ccccc2)c2ccc(Cl)cc2)CC1 (stereo not given) | inconclusive: 17.8 µM [activator, single point] | –
CC(=O)[C@H]1CC[C@H]2[C@@H]3CCC4=CC(=O)CC[C@]4(C)[C@H]3CC[C@]12C | inconclusive: 4.47 µM [activator, partial curve, poor fit] | –
CN1CCCN=C1COC(=O)C(O)(c1ccccc1)C1CCCCC1 (stereo not given) | inconclusive: 11.2 µM [activator, single point] | –
CCCCN(CCCC)CCC(O)c1cc2c(Cl)cc(Cl)cc2c2cc(C(F)(F)F)ccc12 (stereo not given) | inconclusive: 12.6 µM [activator, single point] | –
CCC(=O)O[C@H]1[C@H](O[C@@H]2[C@@H](C)[C@H](O[C@H]3C[C@@](C)(OC)[C@@H](O)[C@H](C)O3)[C@@H](C)C(=O)O[C@H](CC)[C@@](C)(O)[C@H](O)[C@@H](C)C(=O)[C@H](C)C[C@@]2(C)O)O[C@H](C)C[C@@H]1N(C)C | inconclusive: 0.316 µM [activator, full curve, poor fit] | –
CCN(CC)CCNC(=O)c1c(C)[nH]c(/C=C2\C(=O)Nc3ccc(F)cc32)c1C | inconclusive: 6.31 µM [activator, partial curve] | –
CNC(=O)c1ccccc1Sc1ccc2c(/C=C/c3ccccn3)n[nH]c2c1 | inconclusive: 14.1 µM [activator, single point] | –
O=C(O)c1ccc(-n2nc(-c3ccccc3O)nc2-c2ccccc2O)cc1 | – | inactive: -4.07% [at 1.53 µM]
CN(C)CCOc1ccccc1Cc1ccccc1 | inconclusive: 20 µM [activator, partial curve, poor fit] | –
CN1CCCC(CC2c3ccccc3Sc3ccccc32)C1 (stereo not given) | inconclusive: 8.91 µM [activator, single point] | –
C[C@]12CC[C@@H]3c4ccc(O)cc4C[C@@H](CCCCCCCCCS(=O)CCCC(F)(F)C(F)(F)F)[C@H]3[C@@H]1CC[C@@H]2O (stereo not given in full) | inconclusive: 3.98 µM [activator, full curve, poor fit] | –
CN(C)CCCN1c2ccccc2Sc2ccc(C(F)(F)F)cc21 | inconclusive: 14.1 µM [activator, single point] | –
OCCOCCN1CCN(C(c2ccccc2)c2ccc(Cl)cc2)CC1 (stereo not given) | inconclusive: 0.316 µM [activator, partial curve, poor fit] | –
CC1(C)S[C@@H]2[C@H](NC(=O)[C@H](N)c3ccccc3)C(=O)N2[C@H]1C(=O)O | inconclusive: 1.12 µM [activator, single point] | –
Cc1nc(Nc2ncc(C(=O)Nc3c(C)cccc3Cl)s2)cc(N2CCN(CCO)CC2)n1 | inconclusive: 2.82 µM [activator, single point] | –
CNCCC(Oc1ccc(C(F)(F)F)cc1)c1ccccc1 (stereo not given) | active: 10 µM | –
Clc1ccc(Nc2nnc(Cc3ccncc3)c3ccccc23)cc1 | inconclusive: 15.8 µM [activator, single point] | –
